From PubChem BioAssay AID1240 (Sanford-Burnham Center for Chemical Genomics, 2008) come the findings set out here.

Among all 50,000 compounds or so, about 800 (1.6%) showed an effect of 50% or more. This is one part of the list.

The target in the test is Bcl-2-like protein 10 (Homo sapiens) (UniProt Q9HD36). As to the kind of experiment: TR3 peptide-Bcl-B binding displacers, biochemical primary FP assay, phenotype converters (AID 1240).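 Note: 0% = Bcl-B with tracer peptide and DMSO and 100% = tracer peptide lacking Bcl-B.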 Particulars: GST-Bcl-B / FITC-TR3 peptide fluorescence polarization; stronger effect = higher value; compound at 3.75 mg/L.
Chain of UniProt Q9HD36 (Q9HD36 whole entry, looked up): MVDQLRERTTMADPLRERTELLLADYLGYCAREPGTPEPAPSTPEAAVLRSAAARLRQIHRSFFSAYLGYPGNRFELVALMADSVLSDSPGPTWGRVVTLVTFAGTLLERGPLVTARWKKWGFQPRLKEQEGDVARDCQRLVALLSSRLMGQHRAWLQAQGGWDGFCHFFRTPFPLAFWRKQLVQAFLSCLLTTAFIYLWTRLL
As for `CN1CCN(C(=O)c2cccc(F)c2)CC1`, the displacement was -10.4%. With `COc1ccc(OC)c(NC(=O)CN(c2ccccc2Cl)S(C)(=O)=O)c1` the figure was 1.3%; with `Cc1cc(C)nc(NS(=O)(=O)c2ccc(NC(=S)NC(=O)/C=C/c3ccc([N+](=O)[O-])cc3)cc2)n1`, 3.9%; with `COc1ccc(N2C(=O)NC(=O)/C(=C\c3cc(Cl)c(OC)c(Cl)c3)C2=O)cc1`, 9.4%. Then `COC(=O)c1c(-c2ccc(C(C)C)cc2)csc1N`, with 5.7%. As for `CC1=NN(c2ccc([N+](=O)[O-])cc2)C(=O)/C1=C\N(C)C`, the displacement was -23.6%.

With `CC(C)c1ccc(-n2c(O)c(/C=C3\C=Nc4ccccc43)c(=O)[nH]c2=O)cc1`, the displacement was determined as 14.5%. Take `CC(C)OC(=O)c1ccc(NC(=O)COc2ccc(Cl)cc2)cc1`: the displacement is -13.1%.

Take `CCOc1ccccc1NC(=O)C(=O)NCc1ccccc1Cl`: the displacement is -11.6%. On to `Cc1ccccc1OCC(=O)Nc1cccc(C(F)(F)F)c1`, for which the displacement was -0.9%. For the molecule `CCOC(=O)c1c(-c2ccccc2)oc2cc(Br)c(OCC(=O)C(C)(C)C)cc12`, the displacement was found to be 5.4%. For `CC(C)(C)NCCCCOc1ccc2ccccc2c1`, the displacement turned out to be 1.4%. Then `COc1ccc(-c2ccc(/C=C3/SC(=S)NC3=O)o2)cc1Cl`, with 8.2%; and `COc1ccc(Cl)cc1C(=O)Nc1nc(-c2ccc(Cl)cc2Cl)cs1`, with 9.7%; and `O=C(c1ccc(Cl)c([N+](=O)[O-])c1)N1CCN(c2ccc([N+](=O)[O-])cc2)CC1`, with 5.7%. Then `COC(=O)C1=C(C)N=c2s/c(=C\c3ccc(Cl)cc3)c(=O)n2C1c1ccc(OC)c(OC)c1` (stereo not given), with 9.9%; and `CCOC(=O)C1=C(C)NC(C)=C(C(=O)OCC)C1c1ccc(N(C)C)cc1`, with 5.1%. In the case of `CCCOc1cccc(C(=O)Nc2scc(-c3ccc(C)cc3)c2C(=O)OC)c1`, the displacement worked out at 18%. Then `Cc1ccc(-c2ccccc2)n1-c1ccc(O)cc1`, with 8.7%; and `O=[N+]([O-])c1ccc(NS(=O)(=O)c2cccs2)cc1`, with 6.5%.

`Cc1ccc(C)c(S(=O)(=O)Nc2ccc(O)c3ccccc23)c1`: the displacement turned out to be 11.4%. With `O=C(CSc1ncccc1C(=O)O)c1ccc(Cl)cc1` the figure was -5.1%; with `O=S(=O)(c1ccc(Cl)cc1)N1CCN(Cc2ccccc2C(F)(F)F)CC1`, -8.1%; with `CCNC(=O)/C=C/c1cn(-c2ccccc2)nc1-c1ccccc1`, 9.4%. Then `CCOC(=O)c1ccccc1NS(=O)(=O)c1ccc(Cl)cc1`, with 5.4%. Then `NC(=O)c1cc2n(n1)C(C(F)(F)F)CC(c1ccc(Cl)cc1)N2` (stereo not given), with 5.6%. In the case of `C=CCNC(=S)NNC(=O)c1ccccc1Br`, the displacement is -10.5%.

For `CCN(CC)c1ccc(/C=N/NC(=O)c2cc(-c3ccc(Cl)cc3)n[nH]2)cc1`, the displacement is -12.2%. Regarding `CCOC(=O)c1c(CN(CC)CC)n(C)c2cc(Br)c(OC)cc12`, the displacement is -12.1%. With `Cc1cc(I)ccc1NC(=O)CCCOc1ccc(Cl)cc1Cl` the figure was -2.8%; with `CCCOC(=O)c1cccc(NC(=O)c2cccs2)c1`, -5.3%. With `CC1CCN(C2=NC(=O)/C(=C/c3ccc(O)cc3)S2)CC1` the figure was -32.4%; with `O=C1C2C3C=CC(C2C(=O)N1Cc1ccc(F)cc1)C1C(=O)N(Cc2ccc(F)cc2)C(=O)C31` (stereo not given), -8.3%.

With `O=S(=O)(N/N=C/c1ccc2ccccc2c1)c1ccc(Cl)cc1`, the displacement was -6.7%. With `COc1ccc(CCNC(=O)COc2cc(C)c(Cl)c(C)c2)cc1OC` the figure was -3.1%; with `C/C(=N\NC(=O)c1ccc(Br)cc1)c1cccnc1`, 2.5%. Then `C(=N\Nc1nc(N2CCOCC2)nc(N2CCOCC2)n1)/c1ccccc1`, with 5.4%; and `Cc1cc(=O)n2[nH]c(-c3cccc(F)c3)cc2n1`, with 13.6%; and `C=CCOc1ccc(/C=C2\C(=O)NC(=O)N(c3ccc(Cl)cc3)C2=O)cc1OCC`, with -4%. Then `CN=C(NS(=O)(=O)c1ccccc1)c1ccccc1`, with 11.1%; and `COc1ccc(NC(=S)NC(=O)c2ccc(OC)cc2)cc1`, with 13.3%. In the case of `CCCOC(=O)c1ccc(NC(=O)c2ccncc2)cc1`, the displacement is -2.7%. Then `CCC(Oc1ccccc1)C(=O)Nc1sc2c(c1C(=O)OC)CCC(C)C2` (stereo not given), with -6.5%; and `Cc1ccc(C(=O)n2c(C)nc3ccccc32)cc1C`, with -8.5%. Then `CNC(=S)N(CCc1ccc(OC)c(OC)c1)C1CC(=O)N(c2ccccc2)C1=O` (stereo not given), with -4.7%; and `CC(=O)N/N=C/c1nc2ccccc2[nH]1`, with -11.6%; and `CCCOC(=O)c1c(NC(=O)Cn2nc([N+](=O)[O-])cc2C)sc2c1CCCC2`, with -7.8%.

Consider `O=C1CC(NCc2ccc3c(c2)OCO3)C(=O)N1c1cccc(Br)c1` (stereo not given), for which the displacement is -7.1%. With `CCN1C(=O)/C(=C\c2ccc(-c3ccc([N+](=O)[O-])cc3Br)o2)SC1=S` the figure was 1.9%; with `Cc1cccc(-n2c(SCc3ccccc3)nc3ccccc3c2=O)c1`, -9.7%; with `CC1CCCC(C)N1CC(O)COc1ccc(N=Cc2ccccc2O)cc1` (stereo not given), -1.9%.

As to `CC(=O)c1ccc(NC(=S)NC(NC(=O)CC(C)C)C(Cl)(Cl)Cl)cc1` (stereo not given), the displacement was -27.7%.

Take `O=C(Cc1ccccc1)Nc1ccc(C(=O)OC2CCCCC2)cc1`: the displacement is -9.8%. In the case of `COc1cccc(-n2c(O)c(C=NCc3ccccc3F)c(=O)[nH]c2=O)c1`, the displacement turned out to be 9.2%. With `CCc1ccc(S(=O)(=O)Nc2cc3c(C(=O)O)c(C)oc3c3ccccc23)cc1` the figure was 17.8%; with `Cc1ccc(NC(=O)Cc2ccc(Br)cc2)cc1C`, -6.9%; with `COc1cc2c(cc1NC(=O)c1ccc(F)cc1)oc1ccccc12`, -9.2%.

`Fc1ccc(-c2noc(-c3ccc(F)cc3)n2)cc1`: the displacement is -12.2%. Then `Cc1ccc(C(C)C)c(OCC(=O)N2CCN(c3ccc([N+](=O)[O-])cc3)CC2)c1`, with 7.9%.

Regarding `Cc1sc2nc(N)c(C#N)c(-c3ccccc3)c2c1C`, the displacement is 3.9%. Then `CC(C)=C(NC(=O)c1ccccc1)C(=O)NCc1ccccc1Cl`, with -1.5%; and `CCOc1ccccc1N1CCN(S(=O)(=O)c2ccc(OC)cc2)CC1`, with -12.8%; and `COc1ccc(/C=C/C(=O)Nc2ccccc2OC)cc1Br`, with 13.6%.

With `Cc1ccc(OCCSc2nnnn2-c2ccccc2)cc1`, the displacement worked out at 4.7%. Then `O=C(COc1ccc2ccccc2c1)Nc1ccc(-c2nc3cccnc3o2)cc1`, with 0.7%; and `COc1ccc(-c2csc3nc[nH]c(=O)c23)cc1`, with -2.4%.

Turning to `CCCCCCCCc1nnc(NC(=O)C(C)(C)C)s1`, the displacement was -10.4%. As for `COc1cc(C=O)cc(Br)c1OCc1c(C)no[n+]1[O-]`, the displacement is -5.9%.

Consider `COc1cccc(N2C(=O)NC(=O)/C(=C/c3c(OC)ccc4ccccc34)C2=O)c1`, for which the displacement was -10.7%. With `CC1=C(C(=O)Nc2cccc(Cl)c2)C(c2ccc(F)cc2)NC(=O)N1` (stereo not given) the figure was 2.5%; with `O=C1CSC(=S)N1/N=C/c1c(Cl)cccc1Cl`, -18.9%; with `COc1ccc2oc(=O)c(-c3csc(NC(=O)/C=C\C(=O)O)n3)cc2c1`, -25.1%. With `COc1cccc(N(CC(=O)Nc2cc(Cl)cc(Cl)c2)S(=O)(=O)c2ccccc2)c1` the figure was -5.1%; with `CCOc1ccc(N(CC(=O)Nc2ccccc2C)S(C)(=O)=O)cc1`, 2.3%. With `CSc1ccc(/C=N/NC(=O)/C(=C\c2ccc3c(c2)OCO3)NC(=O)c2ccccc2)cc1` the figure was -8.9%. Regarding `CN1CCN(CCOCCOc2cc(Cl)ccc2Cl)CC1`, the displacement is -13.1%. Then `O=C1C(=O)N(Cc2ccccc2)C(c2ccc(F)cc2)/C1=C(/O)c1ccccc1` (stereo not given), with 3.9%; and `O=[N+]([O-])c1cccc(S(=O)(=O)NCc2ccccc2)c1`, with -3.3%.

In the case of `O=C(Nc1ccc(S(=O)(=O)Nc2nccs2)cc1)c1ccc(F)cc1`, the displacement turned out to be 1.9%. Then `CSc1nnc2c(n1)OC(c1ccc(OCc3ccccc3)cc1)Nc1ccccc1-2` (stereo not given), with 7.4%. With `CCOC(=O)c1c(NC(=O)c2cnccn2)sc2c1CCCC2` the figure was 4.2%; with `COc1ccc(-c2cc(=O)n3[nH]c(-c4ccc(Br)cc4)cc3n2)cc1`, 2.2%. In the case of `O=c1oc2ccccc2cc1-c1nn(-c2ccccc2)cc1/C=N/O`, the displacement turned out to be 53%.

As for `Cc1ccc(NC(=O)c2c(-c3ccccc3Cl)noc2C)nc1`, the displacement was 4.6%. With `NC(N)=N/N=C/c1ccccc1OS(=O)(=O)c1ccccc1` the figure was 12.4%; with `CCCCOC(=O)c1ccc(OC(=O)CCN2C(=O)c3ccccc3C2=O)cc1`, -1.3%; with `CN(C)/C=C1\N=C(c2ccc(Cl)cc2Cl)OC1=O`, 31.9%. With `S=C(c1ccncc1)N1CCOCC1` the figure was 8.2%; with `Cc1sc(NC(=O)c2cc(-c3cccs3)nc3ccccc23)c(C(N)=O)c1C`, -6.2%; with `CCOC(=O)N/N=C/c1ccc(F)cc1`, 14.8%. With `O=C1c2ccccc2C(=O)c2c1c(Cl)c(Cl)c(Cl)c2N1CCCC1` the figure was 8%; with `O=C(N/N=C/c1ccc(O)c(O)c1O)c1ccc(Cl)cc1Cl`, -5.7%; with `Cc1ccc(CC2C(=O)N(c3cc(C)ccc3C)C(=O)C2C)cc1` (stereo not given), 6.5%.

For `COc1ccc(CCNC(=O)C(=O)Nc2ccc(Cl)c(Cl)c2)cc1`, the displacement was -9%.

In the case of `Oc1ccc(Br)cc1CN1CCN(Cc2ccco2)CC1`, the displacement was -8.4%. With `O=C(NCCCN1CCOCC1)/C(=C/c1ccc(-c2cccc([N+](=O)[O-])c2)o1)NC(=O)c1ccccc1` the figure was 10.8%.

On to `Cc1ccc2oc(-c3ccco3)cc(=O)c2c1`, for which the displacement was determined as 7.3%.

For the molecule `COc1ccc(N=Nc2c(N)n[nH]c2N)cc1`, the displacement was 6.5%. Turning to `COc1cc(/C=C2/NC(=S)NC2=O)ccc1OCc1ccccc1Cl`, the displacement is -17%. With `C/C(=N\Nc1cc(-n2nc(C)cc2C)nc(C)n1)c1ccc(Cl)c(Cl)c1` the figure was -5.4%; with `Cc1ccc(/C(O)=C2\C(=O)C(=O)N(CCCC(=O)O)C2c2ccccc2)cc1` (stereo not given), 0.5%; with `COc1ccc(/C=C/C(=O)NCCc2nc3ccccc3[nH]2)cc1Br`, -9.6%. Then `CC(C)(C)c1ccc(S(=O)(=O)Nc2ccccn2)cc1`, with 4%; and `Cc1sccc1/C=N/NC(=O)c1ccc(C(C)(C)C)cc1`, with -7.9%.

As for `Oc1c(/C=N/Nc2cccc3cccnc23)sc2ccccc12`, the displacement is -31.2%. With `Cn1cc([N+](=O)[O-])cc1-c1nc2ccccc2n1C` the figure was 10.9%; with `COc1cc([N+](=O)[O-])cc(/C=C2/C(=O)NC(=O)N(c3ccccc3)C2=O)c1O`, -14.2%; with `CC(=O)Oc1ccc(C(=O)Nc2cccc(-c3nc4ccccc4o3)c2)cc1`, 0.4%.

Turning to `Fc1cccc(Cl)c1C=NN1CCN(c2ccc(Cl)cc2)CC1`, the displacement was 0.8%. As for `CCOC(=O)c1ccc(N2C(=O)C3C(c4ccccc4C)OC4(C(=O)c5ccccc5C4=O)C3C2=O)cc1` (stereo not given), the displacement was -7.9%.
